This is an account of results in PubChem BioAssay AID190 (DTP/NCI, 2004).

Inconclusive results and toxic doses are left out. For part of its entries the source gives two or more results. The other results are left out here. There may be further records. Results that share an entry do not match, cause unknown; some may be repeats, others may stem from another dose, organism or construct than stated. Brackets with × stand for listed records that agree.

For the experiment, the system named is AKR/Lw mice, AKR lymphoma ip, median survival T/C. The experiment in a line: NCI In Vivo Anticancer Drug Screen. Data for tumor model Lymphoma AKR (Transplanted) (intraperitoneal) in AKR/Lw mice. To be noted: endpoint: median survival time, higher = longer survival. The protocol:
The antitumor activity of compounds was measured in mice bearing transplantable tumors. Survival or tumor size were measured and the results are expressed as the measurement made in the treated group (T) divided by the measurement made in the vehicle treated control group (C). The tumor model used in this assay is Lymphoma AKR (Transplanted) (intraperitoneal) in AKR/Lw mice

`CN(C)/N=N/c1nc[nH]c1C(N)=O`: the T/C (dose: 400.0 mg/kg/injection, schedule: Q01DX001 (ip), vehicle: saline) is 118 % of control, 121 % of control, 172 % of control.
Regarding `CC1CCC(NC(=O)N(CCCl)N=O)CC1` (configuration not stated), the T/C (dose: 24.0 mg/kg/injection, schedule: Q01DX001 (ip), vehicle: saline) was 115 % of control and 150 % of control.
With `CCCCCCCCCCCCCCCC(=O)OCC1OC(n2ccc(N)nc2=O)C(O)C1O` (configuration not stated), the T/C (dose: 37.5 mg/kg/injection, schedule: Q01DX001 (ip), vehicle: saline with Tween-80) is 106 % of control and 158 % of control.
With `Cc1c2ccncc2c(C)c2c1[nH]c1ccccc12`, under “dose: 12.5 mg/kg/injection, schedule: Q01DX009 (ip), vehicle: saline”, the T/C is 117 % of control and 151 % of control.
As to `O=c1[nH]cc(F)c(=O)[nH]1`, the T/C (dose: 30.0 mg/kg/injection, schedule: Q01DX001 (ip), vehicle: saline) is on record as 102 % of control, 111 % of control, 158 % of control; the T/C (dose: 40.0 mg/kg/injection, schedule: Q04DX003 (ip), vehicle: saline) is 97 % of control and 169 % of control (2×); the T/C (dose: 120.0 mg/kg/injection, schedule: Q01DX001 (ip), vehicle: saline) is reported as 111 % of control, 160 % of control, 164 % of control.
